{
  "source": "the supplement of paper PMC4466236",
  "note": "The full ranking holds about 33,000 sequences; the median of “E-score (dimensionless, -0.5 to 0.5)” is about -0.058, and the highest 2% start at about 0.35. The list shows a part of the results.",
  "data": [
    {"system": "MvaT", "assay": "PBM 8-mer E-score (mean of HK and ME arrays) (E-score (dimensionless, -0.5 to 0.5)); higher = stronger relative binding preference; most listed sequences are background and not binding sites", "in_short": "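Full-length P. aeruginosa MvaT carrying an N-terminal glutathione S-transferase tag was tested by protein binding microarray following a previously described protocol. Two universal double-stranded 60-mer arrays, ME and HK, were used, each with a constant 25-mer primer region and a variable 35-mer region covering all 8-mers. The rank-based E-score is the mean of the two arrays, parsed with a custom script. Its range runs from -0.5 to 0.5 for each 8-mer.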", "values": [
      {"sequence": "CAGTGCGA", "PBM 8-mer E-score": 0.0228},
      {"sequence": "CCGAAGCC", "PBM 8-mer E-score": -0.247},
      {"sequence": "CAGGCTTC", "PBM 8-mer E-score": -0.24},
      {"sequence": "CAGTACAG", "PBM 8-mer E-score": -0.0775},
      {"sequence": "AATCCCCT", "PBM 8-mer E-score": -0.223},
      {"sequence": "AATTAGTC", "PBM 8-mer E-score": 0.282},
      {"sequence": "GCCCAACA", "PBM 8-mer E-score": -0.163},
      {"sequence": "CTGAGTCC", "PBM 8-mer E-score": -0.191},
      {"sequence": "AGATGTGG", "PBM 8-mer E-score": -0.155},
      {"sequence": "AGCATGAC", "PBM 8-mer E-score": -0.208},
      {"sequence": "CTTGTCAC", "PBM 8-mer E-score": -0.201},
      {"sequence": "CGTGGGTA", "PBM 8-mer E-score": 0.0178},
      {"sequence": "GAAAGGGC", "PBM 8-mer E-score": -0.199},
      {"sequence": "AAGACAAG", "PBM 8-mer E-score": 0.0271},
      {"sequence": "AATCGATC", "PBM 8-mer E-score": 0.0462},
      {"sequence": "GCAAGTAC", "PBM 8-mer E-score": 0.161},
      {"sequence": "GCAAGGCC", "PBM 8-mer E-score": -0.272},
      {"sequence": "CGCTAACG", "PBM 8-mer E-score": -0.207},
      {"sequence": "TTCTCCAA", "PBM 8-mer E-score": -0.0358},
      {"sequence": "CCGAGCGC", "PBM 8-mer E-score": -0.231},
      {"sequence": "AATTGTTC", "PBM 8-mer E-score": 0.263},
      {"sequence": "TAGTCTAA", "PBM 8-mer E-score": 0.183},
      {"sequence": "CCTAAACA", "PBM 8-mer E-score": 0.0471},
      {"sequence": "ATATCCAA", "PBM 8-mer E-score": 0.242},
      {"sequence": "ACACGTAA", "PBM 8-mer E-score": 0.167},
      {"sequence": "CTACTACC", "PBM 8-mer E-score": -0.126},
      {"sequence": "TGCCTTAA", "PBM 8-mer E-score": 0.151},
      {"sequence": "GGTTAAAA", "PBM 8-mer E-score": 0.239},
      {"sequence": "CTCACGCC", "PBM 8-mer E-score": -0.235},
      {"sequence": "GTACAGAA", "PBM 8-mer E-score": -0.034},
      {"sequence": "GGGAGACC", "PBM 8-mer E-score": -0.254},
      {"sequence": "GTGATGTA", "PBM 8-mer E-score": -0.0306},
      {"sequence": "AACCCGCC", "PBM 8-mer E-score": 0.101},
      {"sequence": "ATATAGGG", "PBM 8-mer E-score": 0.135},
      {"sequence": "GTCGCCCA", "PBM 8-mer E-score": -0.221},
      {"sequence": "CACACTGA", "PBM 8-mer E-score": 0.0119},
      {"sequence": "CTTGAATC", "PBM 8-mer E-score": -0.127},
      {"sequence": "CTGGAGGA", "PBM 8-mer E-score": -0.344},
      {"sequence": "CCGACGAG", "PBM 8-mer E-score": -0.302},
      {"sequence": "CGGGGCAG", "PBM 8-mer E-score": -0.247},
      {"sequence": "CAAGATCC", "PBM 8-mer E-score": -0.179},
      {"sequence": "CACCCAAG", "PBM 8-mer E-score": -0.111},
      {"sequence": "GAGAACTA", "PBM 8-mer E-score": 0.161},
      {"sequence": "TCATAGCA", "PBM 8-mer E-score": 0.0699},
      {"sequence": "CGTGCTGA", "PBM 8-mer E-score": -0.239},
      {"sequence": "AGCCTTAC", "PBM 8-mer E-score": -0.0634},
      {"sequence": "TACCCCCA", "PBM 8-mer E-score": -0.124},
      {"sequence": "CAGCATCC", "PBM 8-mer E-score": -0.243},
      {"sequence": "CCGAGGGC", "PBM 8-mer E-score": -0.235},
      {"sequence": "GATCCTGA", "PBM 8-mer E-score": -0.242},
      {"sequence": "AACCTAGG", "PBM 8-mer E-score": -0.0613},
      {"sequence": "GCCGGGAA", "PBM 8-mer E-score": -0.122},
      {"sequence": "AAACGACG", "PBM 8-mer E-score": 0.0089},
      {"sequence": "ACAAAACG", "PBM 8-mer E-score": 0.00437},
      {"sequence": "AATAGTGT", "PBM 8-mer E-score": 0.274},
      {"sequence": "CGGTCACA", "PBM 8-mer E-score": -0.153},
      {"sequence": "GAGGTAGC", "PBM 8-mer E-score": -0.211},
      {"sequence": "AGCAGACC", "PBM 8-mer E-score": -0.149},
      {"sequence": "AAGTCGTG", "PBM 8-mer E-score": -0.0141},
      {"sequence": "GACTAACA", "PBM 8-mer E-score": 0.0565},
      {"sequence": "CCTCTGTA", "PBM 8-mer E-score": -0.19},
      {"sequence": "ACCGGTCC", "PBM 8-mer E-score": -0.0864},
      {"sequence": "CCAGCAAG", "PBM 8-mer E-score": -0.0175},
      {"sequence": "GGAGGGGA", "PBM 8-mer E-score": -0.359},
      {"sequence": "GCCAACAA", "PBM 8-mer E-score": 0.0913},
      {"sequence": "CCTATGCC", "PBM 8-mer E-score": -0.186},
      {"sequence": "CACGGCCA", "PBM 8-mer E-score": -0.192},
      {"sequence": "TGCGGTAA", "PBM 8-mer E-score": 0.00472},
      {"sequence": "CAGCATGG", "PBM 8-mer E-score": -0.0956},
      {"sequence": "GAAATACC", "PBM 8-mer E-score": 0.153},
      {"sequence": "GAAGCCCC", "PBM 8-mer E-score": -0.256},
      {"sequence": "CAGCGAGC", "PBM 8-mer E-score": -0.199},
      {"sequence": "ATAGGAAT", "PBM 8-mer E-score": 0.124},
      {"sequence": "AGGCAGGG", "PBM 8-mer E-score": -0.202},
      {"sequence": "AGGAGAGG", "PBM 8-mer E-score": -0.302},
      {"sequence": "CTCTGTAC", "PBM 8-mer E-score": -0.205},
      {"sequence": "ATCAGAAT", "PBM 8-mer E-score": 0.06},
      {"sequence": "CTACGTTC", "PBM 8-mer E-score": -0.226},
      {"sequence": "ACGCACCC", "PBM 8-mer E-score": -0.125},
      {"sequence": "AGCAATCA", "PBM 8-mer E-score": 0.0975},
      {"sequence": "GAACGCTC", "PBM 8-mer E-score": -0.183},
      {"sequence": "AGCCCGCC", "PBM 8-mer E-score": -0.113},
      {"sequence": "ATATGACC", "PBM 8-mer E-score": 0.0259},
      {"sequence": "CTTCATGA", "PBM 8-mer E-score": -0.0582},
      {"sequence": "CTTACAGC", "PBM 8-mer E-score": -0.123},
      {"sequence": "CCACTCAG", "PBM 8-mer E-score": -0.127},
      {"sequence": "CAACGGAG", "PBM 8-mer E-score": -0.199},
      {"sequence": "CCCCGGAC", "PBM 8-mer E-score": -0.266},
      {"sequence": "CACCCGGA", "PBM 8-mer E-score": -0.27},
      {"sequence": "GGAGGGAC", "PBM 8-mer E-score": -0.273},
      {"sequence": "CAGGACTG", "PBM 8-mer E-score": -0.0561},
      {"sequence": "CTTACTAC", "PBM 8-mer E-score": 0.0674},
      {"sequence": "ATCGCCCC", "PBM 8-mer E-score": -0.264},
      {"sequence": "CGATAGAC", "PBM 8-mer E-score": -0.0996},
      {"sequence": "ATTTTTGG", "PBM 8-mer E-score": 0.04},
      {"sequence": "ACTAGTGC", "PBM 8-mer E-score": 0.0641},
      {"sequence": "CACACCCA", "PBM 8-mer E-score": 0.0517},
      {"sequence": "ACACTAAC", "PBM 8-mer E-score": 0.216},
      {"sequence": "CCGACGTA", "PBM 8-mer E-score": -0.0615},
      {"sequence": "GTACTAAA", "PBM 8-mer E-score": 0.213},
      {"sequence": "CCTCCTAC", "PBM 8-mer E-score": -0.274},
      {"sequence": "GTCTCCAA", "PBM 8-mer E-score": -0.205},
      {"sequence": "CCTTCATA", "PBM 8-mer E-score": 0.0473},
      {"sequence": "GCCCCGCC", "PBM 8-mer E-score": -0.264},
      {"sequence": "ACTAACGA", "PBM 8-mer E-score": 0.169},
      {"sequence": "CGTCGTGA", "PBM 8-mer E-score": -0.171},
      {"sequence": "GTGCGCAA", "PBM 8-mer E-score": 0.017},
      {"sequence": "ACCTTTGG", "PBM 8-mer E-score": -0.119},
      {"sequence": "GAGTTAGC", "PBM 8-mer E-score": -0.00613}
    ]}
  ]
}
